Results on 1 molecule are retold here after patent US20230046078A1, “METHODS OF USING SUBSTITUTED FLAVONES FOR TREATING BONE DISORDERS” (EMORY UNIVERSITY, priority 2021, published 2023).

For part of its entries the source gives two or more results. This list holds those alone. The source may hold further records. Results that share an entry read as repeated measurements (runs, samples, wells or individuals). Records carry a tag for their origin. The letters are not those of the source and start again with each entry.

For this assay, the system named is MC3T3-E1 cells. The class given is cell-based, Murine. The conditions noted are these: OIM, four days. The method, then: Total RNA was isolated by TRIzol (Life Technologies, Carlsbad, Calif.). Reverse transcription was performed with SuperScript III reverse transcriptase (Life Technologies). Gene-specific primers and probes were designed and bought from Taqman (Life Technologies). All real-time PCR reactions were performed using the ABI 7500-Fast Real-Time PCR System and the Taqman Universal Master Mix Kit (Life Technologies). The relative quantification of gene expression was calculated using the ΔΔCt method. Predesigned real-time PCR primers from Applied Biosystems (Waltham, Mass.) were used for the analysis of Opg (Tnfrsf11b; Mm0043545_m1), RANK-L (Tnfsf11; Mm00441908_m1), AEP (Lgmn; Mm01325350_m1), GAPDH (Gapdh; Mm99999915_g1).

In the case of `O=c1cc(-c2ccccc2)oc2c(O)c(O)ccc12` [7,8-DHF], the “OPG mRNA levels” value was “increases [passage A] and strong stimulatory effect [passage B]”.
